# Screen size: about 310,000 compounds; about 2,200 (0.71%) showed an effect of 50% or more. The effect is printed as a negative number. Some of the results follow.
# Biological target: human ether-à-go-go-related gene (hERG) potassium channel (human, UniProt Q12809)
# Assay: primary screen, population patch clamp on CHO cells stably expressing hERG
# human ether-à-go-go-related gene (hERG) potassium channel, sequence (Q12809 whole entry, looked up): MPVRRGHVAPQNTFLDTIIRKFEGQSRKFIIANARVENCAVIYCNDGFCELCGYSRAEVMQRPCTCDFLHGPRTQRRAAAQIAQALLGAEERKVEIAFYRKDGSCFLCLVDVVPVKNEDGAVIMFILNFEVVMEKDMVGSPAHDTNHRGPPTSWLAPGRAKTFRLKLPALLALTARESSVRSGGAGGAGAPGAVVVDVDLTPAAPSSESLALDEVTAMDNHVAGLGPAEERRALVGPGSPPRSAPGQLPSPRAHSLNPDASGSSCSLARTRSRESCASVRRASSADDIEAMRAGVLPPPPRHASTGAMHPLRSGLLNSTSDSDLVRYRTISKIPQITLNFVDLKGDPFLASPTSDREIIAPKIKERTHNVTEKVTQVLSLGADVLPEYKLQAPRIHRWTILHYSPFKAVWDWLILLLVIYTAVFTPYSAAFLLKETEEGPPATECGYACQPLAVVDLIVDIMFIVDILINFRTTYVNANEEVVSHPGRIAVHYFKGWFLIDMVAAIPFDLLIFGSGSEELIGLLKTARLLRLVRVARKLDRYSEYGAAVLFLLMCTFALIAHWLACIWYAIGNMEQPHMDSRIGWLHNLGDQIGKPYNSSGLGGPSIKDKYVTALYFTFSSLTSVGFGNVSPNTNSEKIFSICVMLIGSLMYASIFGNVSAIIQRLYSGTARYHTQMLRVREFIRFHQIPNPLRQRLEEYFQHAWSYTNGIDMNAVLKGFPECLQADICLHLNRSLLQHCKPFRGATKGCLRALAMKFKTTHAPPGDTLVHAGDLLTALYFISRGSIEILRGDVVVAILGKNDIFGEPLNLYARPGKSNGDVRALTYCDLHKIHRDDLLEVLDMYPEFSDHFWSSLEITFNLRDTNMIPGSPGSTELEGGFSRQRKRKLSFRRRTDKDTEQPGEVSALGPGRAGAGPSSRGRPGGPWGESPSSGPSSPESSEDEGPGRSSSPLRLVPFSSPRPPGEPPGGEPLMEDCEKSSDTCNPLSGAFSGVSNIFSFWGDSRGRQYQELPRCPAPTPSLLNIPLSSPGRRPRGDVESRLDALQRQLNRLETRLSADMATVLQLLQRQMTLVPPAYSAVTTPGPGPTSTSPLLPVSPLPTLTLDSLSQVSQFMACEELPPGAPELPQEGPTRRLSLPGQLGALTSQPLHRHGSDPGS
row,SMILES,"hERG current change (%, negative = inhibition) at 1uM [%]"
1,CCOC(=O)NNC(=O)c1[nH]c2ccc(Br)cc2c1-c1ccccc1,10.1
2,O=C(CSc1nnc(Nc2ccccc2)s1)NCC1CCCO1 (stereo not shown),14.7
3,COC(=O)CCCNC(=O)c1ccc(OS(=O)(=O)c2cc([N+](=O)[O-])ccc2C)cc1,5.57
4,COc1ccc(/C(C)=N/NC(=O)c2ccc3nc[nH]c3c2)cc1,13.1
5,CCCCNc1c(-c2cccc(-c3cc(C(C)=O)cs3)c2)nc2cc(C)ccn12.O=C(O)C(F)(F)F,9.48
6,COc1ccc(C(=O)/C=C/c2cccs2)c(OC(=O)N2CCOCC2)c1,13.4
7,Cc1cc(C)c2c(c1)/C(=C/C(=O)c1ccc(Br)s1)C(=O)N2,21
8,CC(C)(C)OC(=O)N[C@@H](Cc1ccccc1)C(=O)N1CCC(C(=O)N[C@@H](Cc2c[nH]c3ccccc23)C(=O)O)CC1,15
9,CN1CCC(=O)N(CCSc2ccc(Br)cc2)CC1,-0.46
10,CCC(CC)NC(=O)CCCSc1nc2ccccc2[nH]1,9.36
11,Cc1cc(OCC(O)CN(CCO)CCO)ccc1Cl.Cl (stereo not shown),7.36
12,Cc1ccccc1NC(=S)NCC(c1cccnc1)N1CCOCC1 (stereo not shown),11.4
13,CCOC(=O)c1ccc(CNC(=O)C2CCCCC2C(=O)OCC(F)(F)F)o1 (stereo not shown),7.18
14,COc1ccccc1C(=O)COC(=O)CNS(=O)(=O)c1ccc(C)cc1,4.92
15,COC(=O)[C@@H](Cc1c[nH]c2ccccc12)NC(=O)C1CCCN(S(=O)(=O)c2ccc(C)cc2)C1 (stereo partly shown),4.77
16,Cl.Cn1c(SCc2ccccc2)nnc1C1CCCNC1 (stereo not shown),12.2
17,CCOC(=O)N1CCN(C(=O)c2cccc(F)c2)CC1,1.87
18,CCOC(=O)CSc1n[nH]c(NC(=O)c2cccc(C(F)(F)F)c2)n1,-6.41
19,CC1(C)C2CCC1(CS(=O)(=O)Nc1ccccc1)C(=O)C2 (stereo not shown),5.72
20,CC(C(=O)Nc1ccc(Cl)cc1Cl)N1CC=C(c2ccccc2)CC1 (stereo not shown),9.25
21,N#Cc1cnn(-c2ccc(F)cc2)c1N,17.6
22,CCCCNC(=O)c1cc2cc(CC)ccc2[nH]1,8.01
23,COc1ccc(OC)c2[nH]c(=O)c(CCNC(=O)C(=O)c3c[nH]c4ccccc34)cc12,10.3

row,SMILES,"hERG current change (%, negative = inhibition) at 1uM [%]"
1,O=C(CC(=O)N/N=C\c1ccccc1)NCCc1ccccc1,13.3
2,O=C(c1ccco1)N(CCO)Cc1cc2cc3c(cc2[nH]c1=O)OCO3,11.6
3,Cc1cc(C)c(NC(=O)Cn2nnc(C(=O)NCc3cccs3)c2N)c(C)c1,18.4
4,Cc1ccc(C(=O)O)c(C(=O)Nc2nc3ccccc3s2)c1,5.39
5,Cc1noc(C)c1S(=O)(=O)N(CCc1ccccc1)Cc1ccccc1,3.11
6,O=C(OCCN(CCOC(=O)c1ccncc1)S(=O)(=O)c1cccs1)c1ccncc1,-51.5
7,O=C(NCCc1ccccc1)c1nc2nc(-c3cccs3)cc(C(F)(F)F)n2n1,-27
8,COc1ccc(/C(O)=C2/C(=O)C(=O)N(CCN3CCOCC3)C2c2ccccn2)cc1 (stereo not shown),3.23
9,CCCn1c(SCC(=O)NNC(=O)c2ccc(OC)cc2)nnc1C(C)C,16.1
10,Cc1ccsc1C1CC(=O)OC2=C1C(=O)CC(C)(C)C2 (stereo not shown),8.61
11,O=C(CCN1C(=O)C2C3C=CC(C4CC34)C2C1=O)Oc1ccc(Br)cc1 (stereo not shown),14.8
12,CCN(CC)S(=O)(=O)c1ccc(N2CCOCC2)c(NC(=O)CCOc2ccccc2)c1,0.377
13,COc1ccc(CCNC(=O)C2CCN(S(=O)(=O)N3CCOCC3)CC2)cc1OC,2.83
14,CC(C)(C)CC(C)(C)NC1=CC(=O)OC12CCCCC2,11
15,COCCn1c(SCc2nc3ccccc3c(=O)[nH]2)nc2ccccc2c1=O,9.84
16,CCOC(=O)C1=C(COC(=O)c2ccc(C)s2)NC(=O)NC1C (stereo not shown),2.72
17,C/C(Cl)=C\Cn1c(Nc2ccccc2)nc2c1c(=O)n(C)c(=O)n2C,4.97
18,S=C(NCCc1cccc(Cl)c1)NCc1ccccc1,15.8
19,CSc1ccc(CCCCCCOC(=O)C(C)(C)C)cc1,-1.82
20,COc1cc(/C=N\NC(=O)C2COc3ccccc3O2)cc(OC)c1O (stereo not shown),9.77
21,O=C(COc1cccc2c1CCN(Cc1ccccc1F)C2=O)N1CCCCC1,6.27
22,CCOc1ccccc1NC(=O)N1CCCc2ccccc21,7.1
23,CCOC(=O)CNCCC(=O)c1ccc(Br)cc1,0.301

row,SMILES,"hERG current change (%, negative = inhibition) at 1uM [%]"
1,COC(=O)C1=C(c2cccc(C#N)c2)C[C@@H]2CC[C@H]1N2C(=O)N1CCOCC1,4.18
2,C=CCn1c(-c2ccc(F)cc2)n[nH]c1=S,2.35
3,COc1ccccc1OCCOc1ccc(/C=C2\C(=N)N3N=C(S(C)(=O)=O)SC3=NC2=O)cc1,10.8
4,O=C1CCCN1c1ccc(S(=O)(=O)NCc2ccc(F)cc2)cc1,14.5
5,O=C(O)CC1C(=O)NCCN1C/C=C/c1ccccc1 (stereo not shown),13.2
6,O=C(N/N=C/c1cc(Br)ccc1O)c1ccncc1,9.89
7,CCN(CC)c1ccc(N2C(=NC(=O)C3CC3)SC3CS(=O)(=O)CC32)cc1 (stereo not shown),2.97
8,C[n+]1ccccc1Nc1cc([N+](=O)[O-])ccc1N.[I-],13
9,COc1ccc2c(c1)CCCC2NS(=O)(=O)OCC(Cl)(Cl)Cl (stereo not shown),6.61
10,CN(CC(=O)Nc1ccc(F)c(F)c1F)C(=O)C1CCC1,12.6
11,CCN(CC)CC(C)OC(=O)c1cc(OC)c(OC)c(OC)c1.Cl (stereo not shown),-7.49
12,Cc1cc(OC(=O)c2ccccc2Br)cc(=O)n1C,-9.74
13,Cc1cc(=O)[nH]c(N/N=C/c2cccs2)n1,8.69
14,CN(C(=O)c1cc2n(n1)C(C(F)(F)F)CC(c1ccco1)N2)c1ccc(OC(F)(F)F)cc1 (stereo not shown),-0.611
15,CCCCNC(=S)NNC(=O)c1csc(C)c1,0.0052
16,Cc1cc(C)c(NC(=O)CSc2nc(=O)n(CCN3CCOCC3)c3c2CCC3)c(C)c1,-5.78
17,Cc1ccc(OCCNC(=O)c2ccco2)cc1C,18.7
18,CC(C)C(=O)Nc1ccc(C(=O)NNC(=O)CCCOc2ccc(Cl)cc2Cl)cc1,21
19,CCOC(=O)C1CCN(Cc2ccc(O)c(OC)c2)CC1,-16.4
20,Cc1csc(=O)n1CCC(=O)OCC(=O)NCc1ccc(Cl)cc1Cl,7.68
21,CCOC(=O)Cn1c(=O)oc2ccc(C)cc21,7.34
22,COC(=O)c1cc(Br)c(=O)n(Cc2ccncc2)c1,3.89
23,Cl.NC(Cc1ccccc1)Cc1ccccc1,7.6

row,SMILES,"hERG current change (%, negative = inhibition) at 1uM [%]"
1,Nc1ccccc1SCc1ccccc1Cl,11.1
2,O=C(NC(=S)Nc1ccccc1[N+](=O)[O-])c1ccco1,11
3,N#C/C(=C(/O)CSc1ccccn1)c1nc2ccccc2s1,3.25
4,CC(=O)Nc1ccc(NC(=O)C(C)OC(=O)CCCOc2ccc(Cl)cc2C)cc1 (stereo not shown),17.7
5,O=C(c1ccc([N+](=O)[O-])s1)N1CCN(c2ccccn2)CC1,11
6,Cc1ccc2cc(CN(CCCN(C)C)C(=O)NCc3ccccc3)c(=O)[nH]c2c1C,-5.18
7,CCOC(=O)c1c(S(=O)(=O)NCCc2cccs2)c(C)n(C)c1C,6.98
8,CC(=O)c1cc2c(cc1NC(=O)c1cccc(S(=O)(=O)N3CCN(C)CC3)c1)OCO2,12.7
9,Fc1ccc(N2N=C(c3cccs3)CC2c2ccco2)c(F)c1 (stereo not shown),5.91
10,Cc1nn(-c2ccccc2)c(Cl)c1C(=O)NNC(=O)c1ccccc1O,8.86
11,Cc1ccc(CSc2nc3ccccc3c(=O)n2C)cc1,12.1
12,COc1cc(/C=C/C(=O)OCC(=O)N2CCCCCC2)ccc1OCC#N,1.95
13,O=C(COC(=O)C1CC2CCCC(C1)C2=O)NC(=O)c1ccccc1 (stereo not shown),4.93
14,CCOc1cccc(NC(=O)/C(C#N)=C\c2cn(CC(=O)O)c3ccccc23)c1,13.9
15,C[n+]1cccc(CNC(=O)/C=N/O)c1.[I-],10.2
16,C=CCNc1nc(N)c([N+](=O)[O-])c(NC2CCCCC2)n1,7.67
17,Cn1ccnc1C(O)c1ccc(OCc2ccccc2)cc1 (stereo not shown),7.09
18,COc1ccc(C2Nc3ccccc3C(=O)N2c2ccc(C)cc2)cc1Cn1nnc2ccccc21 (stereo not shown),-5.27
19,Cn1c(=O)c2c(nc(NCCNC(=O)c3ccco3)n2Cc2ccccc2Cl)n(C)c1=O,11.9
20,CC(C)CC(=O)NC(=S)Nc1ccccc1N1CCCC1,8.11
21,CSCCC(NC(=O)c1ccccc1)C(=O)OCC(=O)Nc1ccc(C)c(Cl)c1 (stereo not shown),-4.63
22,O=C(COc1ccc2ccccc2c1)Nc1nc2ccccc2[nH]1,-1.6

# — PMC4336329 (PLoS ONE, 2015)
